No constants are given. Whether binding was seen depends on the method and setting. In cells and extracts the contact can be indirect. Some binding calls cover weakened binding; strength is not graded here. Where a sequence is shown, tags or fusion partners need not be part of it.

Amino acid sequences for entries named in this document (tags omitted).
UniProt P35240: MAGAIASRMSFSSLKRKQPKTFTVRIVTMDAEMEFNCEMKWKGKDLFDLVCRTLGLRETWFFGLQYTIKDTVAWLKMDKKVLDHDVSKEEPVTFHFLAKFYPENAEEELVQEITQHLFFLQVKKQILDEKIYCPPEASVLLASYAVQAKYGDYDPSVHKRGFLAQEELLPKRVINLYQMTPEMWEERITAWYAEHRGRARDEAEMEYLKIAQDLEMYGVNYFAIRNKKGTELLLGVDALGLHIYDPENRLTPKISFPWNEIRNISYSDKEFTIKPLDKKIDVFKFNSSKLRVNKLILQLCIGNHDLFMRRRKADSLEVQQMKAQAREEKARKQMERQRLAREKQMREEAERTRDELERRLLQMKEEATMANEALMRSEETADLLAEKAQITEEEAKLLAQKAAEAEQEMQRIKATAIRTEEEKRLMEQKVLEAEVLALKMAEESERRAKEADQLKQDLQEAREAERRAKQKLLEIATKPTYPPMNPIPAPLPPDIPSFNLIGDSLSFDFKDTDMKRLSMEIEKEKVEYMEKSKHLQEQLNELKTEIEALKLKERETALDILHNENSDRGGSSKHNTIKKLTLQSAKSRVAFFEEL

Binding data for one substance are collected here from article PMC8854406.

For this test, the target named is T1, Myc-KIRREL1-HA (full-length KIRREL1) (UniProt Q96J84).
T1 sequence: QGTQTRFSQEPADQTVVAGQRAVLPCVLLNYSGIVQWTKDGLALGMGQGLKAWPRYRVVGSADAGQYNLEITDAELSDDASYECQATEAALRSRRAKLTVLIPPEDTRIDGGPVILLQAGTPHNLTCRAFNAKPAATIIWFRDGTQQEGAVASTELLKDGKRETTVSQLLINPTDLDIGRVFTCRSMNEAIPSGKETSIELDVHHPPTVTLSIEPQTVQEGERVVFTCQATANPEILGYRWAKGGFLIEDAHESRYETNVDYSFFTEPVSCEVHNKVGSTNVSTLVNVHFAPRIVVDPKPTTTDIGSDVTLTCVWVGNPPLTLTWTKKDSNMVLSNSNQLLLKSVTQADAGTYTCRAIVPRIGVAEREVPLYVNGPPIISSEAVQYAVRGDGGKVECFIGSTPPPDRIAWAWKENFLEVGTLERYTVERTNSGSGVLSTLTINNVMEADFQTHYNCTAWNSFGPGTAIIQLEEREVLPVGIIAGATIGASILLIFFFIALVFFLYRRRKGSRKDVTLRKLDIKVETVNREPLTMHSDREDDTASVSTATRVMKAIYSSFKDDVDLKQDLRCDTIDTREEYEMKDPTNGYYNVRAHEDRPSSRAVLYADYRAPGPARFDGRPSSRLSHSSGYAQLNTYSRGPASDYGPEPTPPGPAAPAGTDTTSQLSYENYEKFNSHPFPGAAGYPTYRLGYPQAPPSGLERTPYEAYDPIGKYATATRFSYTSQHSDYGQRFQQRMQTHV
Nature of the test: co-IP; HEK293T cells co-transfected; NP40 lysis buffer; cleared lysates incubated with anti-Flag tag or anti-Myc tag magnetic beads overnight at 4 °C; beads washed four times; immunoblot. (In general: A western blot detects proteins with antibodies after separation by electrophoresis.)

In the case of “Flag-tagged NF2 (from UniProt P35240 1-595)”, the binding entry is given as “binds weakly”.
